Consider 33 compounds from the supplement of paper PMC10723795.

The assay has as its system RPE1. The assay is described as follows: nucleolar normality score relative to DMSO (fraction of DMSO control); RPE1 is a non-cancer human cell line; higher = more normal nucleoli (less nucleolar stress). As to conditions: 24 h.

The list shows a part of the results.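 Rule for the calls: active = more than 2 SD below the DMSO mean: under 0.85 at 10 µM or 0.885 at 1 µM; inactive = the rest.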 Single values are uncertain, as repeats are few or missing.
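Note: fixed cells immunolabelled for nucleolin and UBF, 40 image fields per well in 384-well plates, per-cell score = nucleolin nucleolar/nucleoplasm intensity ratio divided by the matching UBF ratio.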

Regarding `COc1ccc2c(c1)/C(=C/c1cnc[nH]1)C(=O)N2`, the nucleolar normality score by setting is: (1 µM) inactive: 0.907; (10 µM) inactive: 1.02.

As to `C[C@H]1C(=O)O[C@@H]2CCN3CC=C(COC(=O)[C@](C)(O)[C@]1(C)O)[C@H]23` [Monocrotaline], the nucleolar normality score is inactive: 1 (1 µM) and inactive: 0.92 (10 µM).

Turning to `CC(=O)OC12COC1CC(O)C1(C)C(=O)C(O)C3=C(C)C(O)CC(O)(C(OC(=O)c4ccccc4)C21)C3(C)C` (stereo unspecified) [10-Deacetylbaccatin-III], the nucleolar normality score is, setting by setting: (1 µM) inactive: 0.994; (10 µM) inactive: 0.886.

On to `O=P1(NCCCl)OCCCN1CCCl` (stereo unspecified) [Ifosfamide], for which the nucleolar normality score was inactive: 0.947 (1 µM) and inactive: 1.02 (10 µM).

`O=C1CCC[C@@H]2[C@H]3CCCN4CCC[C@@H](CN12)[C@@H]34` [(+)-Matrine]: the nucleolar normality score is inactive: 0.977 (1 µM) and inactive: 1.03 (10 µM).

For the compound `CN1C(=O)[C@@]23C[C@]4([C@]56C[C@@]78SS[C@@](CO)(C(=O)N7[C@H]5Nc5ccccc56)N(C)C8=O)c5ccccc5N[C@@H]4N2C(=O)[C@]1(CO)SS3` [Chaetocin], the nucleolar normality score was active: 0.626 (1 µM) and active: 0.292 (10 µM).

In the case of `Cc1cc(SCc2sc(-c3ccc(C(F)(F)F)c(F)c3)nc2C)ccc1OCC(=O)O`, the nucleolar normality score reads like this: (1 µM) inactive: 1; (10 µM) inactive: 1.09.

As for `CCC1(c2ccc(N)cc2)CCC(=O)NC1=O` (stereo unspecified) [Aminoglutethimide], the nucleolar normality score (1 µM) is inactive: 1.04 and the nucleolar normality score (10 µM) is inactive: 1.06.

Take `O=C1CCC[C@@H]2[C@H]3CCCN4CCC[C@H](CN12)[C@@H]34` [Sophoridine]: the nucleolar normality score was inactive: 0.987 (1 µM) and active: 0.833 (10 µM).

`O=c1[nH]c2ccccc2n1C1CCN(Cc2ccc(-c3[nH]c4cc5ncnc5cc4nc3-c3ccccc3)cc2)CC1`: the nucleolar normality score (1 µM) is inactive: 1.09 and the nucleolar normality score (10 µM) is inactive: 1.02.

As for `Cc1c([C@H](C)[C@@H]2NC[C@@H](C)C[C@H]2O)ccc2c1C[C@H]1[C@H]2CC=C2C[C@@H](O)CC[C@@]21C` [Veratramine], the nucleolar normality score reads like this: (1 µM) inactive: 1.01; (10 µM) inactive: 0.89.

`CC(=O)Nc1ccc(OC[C@](C)(O)C(=O)Nc2ccc([N+](=O)[O-])c(C(F)(F)F)c2)cc1` [Andarine]: the nucleolar normality score was inactive: 0.936 (1 µM) and inactive: 1.02 (10 µM).

With `C[C@](O)(COc1ccc(C#N)cc1)C(=O)Nc1ccc(C#N)c(C(F)(F)F)c1` [Ostarine (GTx-024, MK-2866 )], the nucleolar normality score is inactive: 0.977 (1 µM) and inactive: 1.07 (10 µM).

`C=C(C)[C@H]1Cc2c(ccc3c2O[C@@H]2COc4cc(OC)c(OC)cc4[C@@H]2C3=O)O1` [Rotenone (Barbasco)]: the nucleolar normality score was inactive: 0.99 (1 µM) and inactive: 0.984 (10 µM).

In the case of `O=C(O)CNC(=O)c1c(O)c2ccccc2n(Cc2ccccc2)c1=O`, the nucleolar normality score runs as follows: (1 µM) inactive: 1.09; (10 µM) inactive: 1.1.

With `CC(C)=CCC[C@]1(C)C=Cc2c(O)c3c(c(CC=C(C)C)c2O1)O[C@]12C(=C[C@@H]4C[C@H]1C(C)(C)O[C@@]2(C/C=C(/C)C(=O)O)C4=O)C3=O` [Gambogic Acid], the nucleolar normality score by setting is: (1 µM) inactive: 1.02; (10 µM) inactive: 1.07.

Regarding `CCNC(=O)C[C@@H]1N=C(c2ccc(Cl)cc2)c2cc(OC)ccc2-n2c(C)nnc21`, the nucleolar normality score (1 µM) was inactive: 0.962 and the nucleolar normality score (10 µM) is inactive: 1.06.

Turning to `C[C@H]1CCC/C=C/[C@@H]2C[C@H](O)C[C@H]2[C@H](O)/C=C/C(=O)O1` [Brefeldin A], the nucleolar normality score reads like this: (1 µM) active: 0.482; (10 µM) active: 0.41.

For `COc1cc(-n2c(=S)[nH]c3ccccc3c2=O)c(Cl)cc1Cl` [Mdivi-1], the nucleolar normality score was inactive: 0.982 (1 µM) and inactive: 1.04 (10 µM).

As for `O=C(O)CCCc1ccc(N(CCCl)CCCl)cc1` [Chloroambucil], the nucleolar normality score is, setting by setting: (1 µM) inactive: 1.06; (10 µM) inactive: 1.05.

Consider `COc1cc([C@@H]2c3cc4c(cc3[C@H](O)[C@H]3COC(=O)[C@@H]23)OCO4)cc(OC)c1OC` [Picropodophyllin (PPP)], for which the nucleolar normality score reads like this: (1 µM) inactive: 0.968; (10 µM) inactive: 0.913.

For `CC(=O)Oc1ccc(C=Cc2cc(OC(C)=O)cc(OC(C)=O)c2)cc1` [Acetyl Resveratrol], the nucleolar normality score runs as follows: (1 µM) inactive: 1.03; (10 µM) inactive: 0.998.

With `COCC1(CO)C(=O)C2CCN1CC2` (stereo unspecified), the nucleolar normality score is, setting by setting: (1 µM) inactive: 0.9; (10 µM) inactive: 0.953.

As to `C/C(=C\c1csc(C)n1)[C@@H]1C[C@@H]2O[C@]2(C)CCC[C@H](C)[C@H](O)[C@@H](C)C(=O)C(C)(C)[C@@H](O)CC(=O)O1` [Patupilone (EPO906, Epothilone B)], the nucleolar normality score is active: 0.744 (1 µM) and active: 0.776 (10 µM).

In the case of `O=S(=O)(CC1CS1)c1ccc(Oc2ccccc2)cc1` (stereo unspecified), the nucleolar normality score reads like this: (1 µM) inactive: 0.899; (10 µM) inactive: 0.962.

In the case of `CC(=O)OC(C)(C)/C=C/C(=O)[C@](C)(O)[C@H]1[C@H](O)C[C@@]2(C)[C@@H]3CC=C4[C@H](C[C@H](O)C(=O)C4(C)C)[C@]3(C)C(=O)C[C@]12C` [Cucurbitacin B], the nucleolar normality score runs as follows: (1 µM) active: 0.486; (10 µM) active: 0.478.

On to `CC(=O)OC1C(=O)C2(C)C(O)CC3OCC3(OC(C)=O)C2C(OC(=O)c2ccccc2)C2(O)CC(O)C(C)=C1C2(C)C` (stereo unspecified) [Baccatin Ⅲ], for which the nucleolar normality score is, setting by setting: (1 µM) inactive: 1.05; (10 µM) inactive: 0.889.

Take `COc1ccc(/C=C/c2cc(OC)cc(OC)c2)cc1` [3,4',5-Trimethoxy-trans-stilbene]: the nucleolar normality score is, setting by setting: (1 µM) inactive: 1.05; (10 µM) inactive: 0.948.

`N[C@@H](Cc1ccc(N(CCCl)CCCl)cc1)C(=O)O` [Melphalan]: the nucleolar normality score is, setting by setting: (1 µM) inactive: 0.958; (10 µM) inactive: 0.952.

As for `CC[C@@H](C(=O)[C@@H](C)[C@@H](O)[C@H](C)[C@@H]1O[C@@H]([C@@H](CC)C(=O)O)CC[C@@H]1C)[C@H]1O[C@]2(C=C[C@@H](O)[C@]3(CC[C@@](C)([C@H]4CC[C@](O)(CC)[C@H](C)O4)O3)O2)[C@H](C)C[C@@H]1C` [Salinomycin (from Streptomyces albus)], the nucleolar normality score was inactive: 1.02 (1 µM) and inactive: 0.898 (10 µM).

Regarding `NC(=O)c1cc(N2CC2)c([N+](=O)[O-])cc1[N+](=O)[O-]`, the nucleolar normality score (1 µM) is inactive: 1.02 and the nucleolar normality score (10 µM) is inactive: 0.989.

Consider `Cn1cc(C2=C(c3cn(C4CCN(Cc5ccccn5)CC4)c4ccccc34)C(=O)NC2=O)c2ccccc21`, for which the nucleolar normality score was inactive: 0.955 (1 µM) and inactive: 0.993 (10 µM).

With `C[C@@H]1CC[C@@]2(OC1)O[C@H]1C[C@H]3[C@@H]4CC=C5C[C@@H](O[C@@H]6O[C@H](CO)[C@@H](O[C@@H]7O[C@@H](C)[C@H](O)[C@@H](O)[C@H]7O)[C@H](O)[C@H]6O[C@@H]6O[C@@H](C)[C@H](O)[C@@H](O)[C@H]6O)CC[C@]5(C)[C@H]4CC[C@]3(C)[C@H]1[C@@H]2C` [Dioscin], the nucleolar normality score is, setting by setting: (1 µM) inactive: 1.1; (10 µM) active: 0.24.
